From patent publication US20260199426A1, “CYCLIC LIPOPEPTIDE ANTIBIOTIC COMPOUNDS FOR USE IN THE TREATMENT OF PROTEIN AGGREGATION DISEASE” (DEUTSCHES ZENTRUM FÜR NEURODEGENERATIVE ERKRANKUNGEN E. V., priority 2022, published 2026)
*1 amine or outer side, *2 acyl side, *3 side chain or, on linkers, in order; H or OH if unused. Where a SMILES comes first, the peptide text is derived from it. Bridges are numbered along the chain shown (N, C = ends). [ ]: non-standard residue; d: D form. The star is where a group is joined. ξ: configuration not given here. X2 = O=C(C(N[*:1])c1ccc(OC2OC(CO)C(O)C(O)C2OC2OC(CO)C(O)C(O)C2O)cc1)[*:2]; Octa(2Z,4E)dienoyl(7-Me) = CC(C)C/C=C/C=C\C(=O)*; ξPhg(3-Cl-4-OH) = NC(C(=O)O)c1ccc(O)c(Cl)c1; X1 = NC(=O)C(O[*:3])C(N[*:1])C(=O)[*:2]; Hpg = N[CH](C(=O)O)c1ccc(O)cc1; Orn = NCCC[CH](N)C(=O)O

Biological target: 2N4R Tau (Homo sapiens, UniProt P10636)
Assay: Seeded Tau aggregation assay (ThT fluorescence, TEM of the fibrils formed)
Conditions: mole ratios of 1:3, 1:5, and 1:10 vs Reference

CC(C)C/C=C/C=C\C(=O)NC(CC(N)=O)C(=O)NC1C(=O)NC(c2ccc(O)cc2)C(=O)NC(CCCN)C(=O)NC(C(C)O)C(=O)NC(c2ccc(O)cc2)C(=O)NC(c2ccc(O)cc2)C(=O)NC(C(C)O)C(=O)NC(Cc2ccccc2)C(=O)NC(CCCN)C(=O)NC(c2ccc(OC3OC(CO)C(O)C(O)C3OC3OC(CO)C(O)C(O)C3O)cc2)C(=O)NC(C(C)O)C(=O)NC(c2ccc(O)cc2)C(=O)NCC(=O)NC(CC(C)C)C(=O)NC(C)C(=O)NC(c2ccc(O)c(Cl)c2)C(=O)OC1C(N)=O (stereo not shown) [Ramoplanin A2] ({Octa(2Z,4E)dienoyl(7-Me)}-N[X1][Hpg][Orn]T[Hpg][Hpg]TF[Orn][X2]T[Hpg]GLA[ξPhg(3-Cl-4-OH)]; ester 2-C; configuration not given here)
span of the fluorescence curves: significantly lower span values
